The record followed here is ChEMBL document CHEMBL5606460, “ASAP - DENV-2 NS2B-NS3 protease fluorescence single point” (2024).

Each structure is given as a SMILES string. The whole screen tested about 2,000 compounds, of which about 110 (5.5%) showed an effect of 50% or more. The list shows a part of the results.

The target in the assay is Genome polyprotein (dengue virus type 2) (UniProt P29990).
Setting [1] is: Thailand/16681/1984, Concentration 25.0 uM, Number of replicates 1.0.

On to `CCn1ccnc(N[C@@H](Cc2c[nH]c3ccccc23)C(=O)OC)c1=O`, for which the inhibition (as a rule, the drop in the measured response relative to a control, in per cent) (Thailand/16681/1984, Concentration 49.5 uM, Number of replicates 2.0, Standard deviation 0.10351011005842083 %) amounted to 0.218%; the inhibition (Thailand/16681/1984, Concentration 99.01 uM, Number of replicates 2.0, Standard deviation 1.0746625349668986 %) was 2.15%; the inhibition (Thailand/16681/1984, Concentration 198.0 uM, Number of replicates 2.0, Standard deviation 0.583666754093053 %) worked out at 4.84%.

As to `Cc1cc(C)c(CNC(=O)C2CCN(c3ccc(C=O)cc3)CC2)c(=O)[nH]1`, the inhibition under setting [1] is 13.3%.

Take `O=Cc1ccc(N2CCC(C(=O)NCc3ccc([N+](=O)[O-])cc3)CC2)cc1`: the inhibition under setting [1] is 8.81%.

Turning to `Cc1nc([C@H]2CCCNC2)[nH]c1C(=O)N1CCO[C@H](c2ccccc2)C1`, the inhibition (Thailand/16681/1984, Concentration 49.5 uM, Number of replicates 2.0, Standard deviation 0.9846181533468901 %) was -5.12%; the inhibition (Thailand/16681/1984, Concentration 99.01 uM, Number of replicates 2.0, Standard deviation 3.3586182103297118 %) is -3.87%; the inhibition (Thailand/16681/1984, Concentration 198.0 uM, Number of replicates 2.0, Standard deviation 1.7197146566295223 %) is -2.98%.

Regarding `N=C(N)NCCC[C@H](NC(=O)c1nccs1)C(=O)N[C@@H](CCCCN)C(=O)N[C@@H](C(N)=O)c1ccc(OCc2ccc(C(F)(F)F)cc2)cc1`, the inhibition amounted to 96.2% (Thailand/16681/1984, Concentration 49.5 uM, Number of replicates 2.0, Standard deviation 0.01715005842126491 %); 96.1% (Thailand/16681/1984, Concentration 49.5 uM, Number of replicates 2.0, Standard deviation 0.019135343573522066 %); 95.6% (Thailand/16681/1984, Concentration 49.5 uM, Number of replicates 2.0, Standard deviation 0.03570815875758177 %); 95.2% (Thailand/16681/1984, Concentration 49.5 uM, Number of replicates 2.0, Standard deviation 0.054562972907415325 %); 95.7% (Thailand/16681/1984, Concentration 49.5 uM, Number of replicates 2.0, Standard deviation 0.06140896980473687 %); 97.2% (Thailand/16681/1984, Concentration 49.5 uM, Number of replicates 2.0, Standard deviation 0.10612104410339795 %). The inhibition by setting is: (Thailand/16681/1984, Concentration 49.5 uM, Number of replicates 2.0, Standard deviation 0.10687631562871318 %) 95.4%; (Thailand/16681/1984, Concentration 49.5 uM, Number of replicates 2.0, Standard deviation 0.10916370939109642 %) 95.9%; (Thailand/16681/1984, Concentration 49.5 uM, Number of replicates 2.0, Standard deviation 0.11089004430610264 %) 91.3%; (Thailand/16681/1984, Concentration 49.5 uM, Number of replicates 2.0, Standard deviation 0.12066541576232535 %) 96.7%; (Thailand/16681/1984, Concentration 49.5 uM, Number of replicates 2.0, Standard deviation 0.12893024416791762 %) 95%; (Thailand/16681/1984, Concentration 49.5 uM, Number of replicates 2.0, Standard deviation 0.18367124536344298 %) 96.2%. Besides, the inhibition (Thailand/16681/1984, Concentration 49.5 uM, Number of replicates 2.0, Standard deviation 0.22697527774705212 %) was determined as 95.7%; the inhibition (Thailand/16681/1984, Concentration 49.5 uM, Number of replicates 2.0, Standard deviation 0.262397512284336 %) was determined as 95.2%; the inhibition (Thailand/16681/1984, Concentration 49.5 uM, Number of replicates 2.0, Standard deviation 0.3581065989316027 %) came out at 96.5%; the inhibition (Thailand/16681/1984, Concentration 49.5 uM, Number of replicates 2.0, Standard deviation 0.6751965592419794 %) worked out at 94.5%; the inhibition (Thailand/16681/1984, Concentration 49.5 uM, Number of replicates 4.0, Standard deviation 0.3877656068031149 %) is 96.3%; the inhibition (Thailand/16681/1984, Concentration 49.8 uM, Number of replicates 2.0, Standard deviation 0.008615490185202914 %) is 98.3%. Moreover, the inhibition runs as follows: (Thailand/16681/1984, Concentration 49.95 uM, Number of replicates 2.0, Standard deviation 0.5898131133050937 %) 90.4%; (Thailand/16681/1984, Concentration 50.0 uM, Number of replicates 2.0, Standard deviation 2.607110988642393 %) 82.5%; (Thailand/16681/1984, Concentration 98.52 uM, Number of replicates 2.0, Standard deviation 0.0007930351015809821 %) 99.7%; (Thailand/16681/1984, Concentration 99.01 uM, Number of replicates 2.0, Standard deviation 0.014371738167426778 %) 98.3%; (Thailand/16681/1984, Concentration 99.01 uM, Number of replicates 2.0, Standard deviation 0.015720437319775387 %) 97.7%; (Thailand/16681/1984, Concentration 99.01 uM, Number of replicates 2.0, Standard deviation 0.019361925031116632 %) 97.6%. The inhibition is, setting by setting: (Thailand/16681/1984, Concentration 99.01 uM, Number of replicates 2.0, Standard deviation 0.03515249470681415 %) 98%; (Thailand/16681/1984, Concentration 99.01 uM, Number of replicates 2.0, Standard deviation 0.051056355111308946 %) 98.5%; (Thailand/16681/1984, Concentration 99.01 uM, Number of replicates 2.0, Standard deviation 0.05114267185705925 %) 98.8%; (Thailand/16681/1984, Concentration 99.01 uM, Number of replicates 2.0, Standard deviation 0.05214610402640662 %) 98.2%; (Thailand/16681/1984, Concentration 99.01 uM, Number of replicates 2.0, Standard deviation 0.05969881927955883 %) 97.8%; (Thailand/16681/1984, Concentration 99.01 uM, Number of replicates 2.0, Standard deviation 0.06259043026219424 %) 97.6%. The inhibition by setting is: (Thailand/16681/1984, Concentration 99.01 uM, Number of replicates 2.0, Standard deviation 0.0932706385798204 %) 98.3%; (Thailand/16681/1984, Concentration 99.01 uM, Number of replicates 2.0, Standard deviation 0.1268262734902538 %) 98.1%; (Thailand/16681/1984, Concentration 99.01 uM, Number of replicates 2.0, Standard deviation 0.1304084184388917 %) 95.2%; (Thailand/16681/1984, Concentration 99.01 uM, Number of replicates 2.0, Standard deviation 0.16720632611157116 %) 97.6%; (Thailand/16681/1984, Concentration 99.01 uM, Number of replicates 2.0, Standard deviation 0.19540492798887588 %) 98.3%; (Thailand/16681/1984, Concentration 99.01 uM, Number of replicates 2.0, Standard deviation 0.2057251739026474 %) 97.9%. In addition, the inhibition is, setting by setting: (Thailand/16681/1984, Concentration 99.01 uM, Number of replicates 2.0, Standard deviation 0.39058866931676656 %) 97.1%; (Thailand/16681/1984, Concentration 99.01 uM, Number of replicates 4.0, Standard deviation 0.160745991426317 %) 98.2%; (Thailand/16681/1984, Concentration 99.5 uM, Number of replicates 2.0, Standard deviation 0.012726325201561474 %) 99.3%; (Thailand/16681/1984, Concentration 99.5 uM, Number of replicates 2.0, Standard deviation 0.04880672492519146 %) 99.4%; (Thailand/16681/1984, Concentration 99.9 uM, Number of replicates 2.0, Standard deviation 0.33233565552852545 %) 95.1%; (Thailand/16681/1984, Concentration 100.0 uM, Number of replicates 2.0, Standard deviation 1.0120962127020525 %) 91.1%. Besides, the inhibition by setting is: (Thailand/16681/1984, Concentration 198.0 uM, Number of replicates 2.0, Standard deviation 0.008588516202155942 %) 97.6%; (Thailand/16681/1984, Concentration 198.0 uM, Number of replicates 2.0, Standard deviation 0.009273655371549035 %) 99.3%; (Thailand/16681/1984, Concentration 198.0 uM, Number of replicates 2.0, Standard deviation 0.015984782353635714 %) 99.5%; (Thailand/16681/1984, Concentration 198.0 uM, Number of replicates 2.0, Standard deviation 0.02043009475977673 %) 99%; (Thailand/16681/1984, Concentration 198.0 uM, Number of replicates 2.0, Standard deviation 0.03091218457183012 %) 99%; (Thailand/16681/1984, Concentration 198.0 uM, Number of replicates 2.0, Standard deviation 0.034661568215359255 %) 98.9%. The inhibition reads like this: (Thailand/16681/1984, Concentration 198.0 uM, Number of replicates 2.0, Standard deviation 0.04180427892619749 %) 98.9%; (Thailand/16681/1984, Concentration 198.0 uM, Number of replicates 2.0, Standard deviation 0.05357033033128675 %) 99.3%; (Thailand/16681/1984, Concentration 198.0 uM, Number of replicates 2.0, Standard deviation 0.055172584924276895 %) 99.5%; (Thailand/16681/1984, Concentration 198.0 uM, Number of replicates 2.0, Standard deviation 0.06522309100757873 %) 99.1%; (Thailand/16681/1984, Concentration 198.0 uM, Number of replicates 2.0, Standard deviation 0.07510635839598934 %) 99.3%; (Thailand/16681/1984, Concentration 198.0 uM, Number of replicates 2.0, Standard deviation 0.08009654525967919 %) 99.1%. The inhibition was determined as 99.2% (Thailand/16681/1984, Concentration 198.0 uM, Number of replicates 2.0, Standard deviation 0.10986503295031769 %); 99% (Thailand/16681/1984, Concentration 198.0 uM, Number of replicates 2.0, Standard deviation 0.15163694309685882 %); 98.9% (Thailand/16681/1984, Concentration 198.0 uM, Number of replicates 2.0, Standard deviation 0.1571827940113163 %); 98.3% (Thailand/16681/1984, Concentration 198.0 uM, Number of replicates 2.0, Standard deviation 0.24491837126989802 %); 99.2% (Thailand/16681/1984, Concentration 198.0 uM, Number of replicates 4.0, Standard deviation 0.0821711955101111 %); 100% (Thailand/16681/1984, Concentration 295.6 uM, Number of replicates 2.0, Standard deviation 0.015100035709695026 %). Besides, the inhibition (Thailand/16681/1984, Concentration 295.6 uM, Number of replicates 2.0, Standard deviation 0.020829309708871917 %) was 99.9%.
